# Measurements: PubChem BioAssay AID720542 (National Center for Advancing Translational Sciences (NCATS), 2013)
# Hit rate of the full screen: of about 360,000 compounds, about 740 (0.21%) were called active. This list was built around the results that the source calls inconclusive (neither active nor inactive); the mix of calls is not that of the screen. Calls come from the whole dose curve; as a rule, active = well fitted inhibition curve with a large enough effect; inconclusive = small, poorly fitted or top-dose-only effect; inactive = no such curve, though single readings can be large or run the other way. Potencies of inconclusive entries are left out as doubtful fits.
# Tested on: Plasmodium falciparum AMA1 (3D7) - RON2 peptide interaction
# Assay: qHTS for Inhibitors of AMA1-RON; Towards Development of Antimalarial Drug Lead: Primary Screen; note: nearly all actives have a fitted effect of over 45% in size
# Conditions: AlphaScreen AMA1-biotinylated RON2 peptide binding; series mostly up to 58.2 µM
# How it was run: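 AMA1 (3D7) with his tag at 25 nM final met compounds first, then biotinylated RON2 peptide at 25 nM; detection used donor plus acceptor beads, 10 µg/mL apiece, read by AlphaScreen after 30 min at room temperature.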
# Potency is the fitted concentration of half-maximal effect; tags give direction and shape of the fitted curve.
row,SMILES,Potency
1,Cc1ccc(OCCCCCCN2CCNCC2)c(Br)c1,"inconclusive [inhibitor, partial curve]"
2,CCOc1ccc(NC(=O)CN(C)C(=O)c2ccccc2-n2cnnn2)cc1OCC,inactive
3,Cc1ccc(C2C(C(=O)c3sc(C)nc3C)=C(O)C(=O)N2CCN2CCOCC2)o1 (stereo unspecified),inactive
4,O=C(Nc1ccc2c(c1)OCCO2)C(CCc1ccccc1)N1CCN(c2ccc(F)cc2)CC1 (stereo unspecified),"inconclusive [inhibitor, partial curve, poor fit]"
5,O=C(O)c1ccc(NC2=C/C(=N/S(=O)(=O)c3cccs3)c3ccccc3C2=O)cc1,"inconclusive [inhibitor, single point]"
6,CC(=O)Nc1ccc(CN2CCCN(C)CC2)cc1,"inconclusive [inhibitor, single point]"
7,O=C(O)CCC(=O)Nc1ccc(N2CCCCCC2)cc1,"inconclusive [inhibitor, single point]"
8,CN(C)c1ccc(NC(=O)CSc2nnc(-c3cccs3)n2Cc2ccco2)cc1,"inconclusive [inhibitor, single point]"
9,COc1ccc(C(O)(c2ccccc2OC)C(CN2CCOCC2)c2ccccc2)cc1 (stereo unspecified),"inconclusive [inhibitor, partial curve]"
10,O=C1NC(=O)c2cc(Br)cc3cccc1c23,inactive
11,COc1cc(/C=N/N(c2ccccc2)c2ccccc2)ccc1O,"inconclusive [inhibitor, partial curve]"
12,O=C(c1cccc(F)c1)N1CCN(Cc2c[nH]c3ccccc23)CC1,"inconclusive [inhibitor, single point]"
13,Cc1c(C(=O)N(Cc2ccc(N(C)C)cc2)CC2CCCO2)oc2ccccc12 (stereo unspecified),"inconclusive [inhibitor, single point]"
14,Cc1ccsc1C(=O)N1CCCC(C)(C(=O)O)C1 (stereo unspecified),inactive
15,Cn1cc(C(=O)c2ccc(Cl)cc2)cc1-c1nc2ccccc2n1C,"inconclusive [inhibitor, single point]"
16,CCOC(=O)N1CCC(NC(=O)Cn2cc3c(n2)CCCC3)CC1,inactive
17,C=CCN1C(=O)c2ccc(C(=O)NCCc3ccc(OC)c(OC)c3)cc2C1=O,"inconclusive [inhibitor, partial curve]"
18,CCCOC(=O)C1=C(C)NC2=C(C(=O)C(C(=O)OC)C(C)C2)C1c1ccc(N(CC)CC)cc1 (stereo unspecified),"inconclusive [inhibitor, partial curve]"
19,COc1ccc(S(=O)(=O)c2c(N)n(Cc3ccco3)c3nc4ccccc4nc23)cc1,"inconclusive [inhibitor, single point]"
20,C/C(=N\N=C(c1ccccc1)c1ccccc1)c1ccco1,"inconclusive [inhibitor, single point]"
21,c1ccc([C@H]2CN3C(=N2)Sc2ccccc23)cc1,inactive
22,Cc1ccc(C(=O)CC(C(=O)O)n2cccn2)cc1 (stereo unspecified),inactive
23,Nc1c(C(=O)NC2CCCC2)sc2nc(-c3cccs3)ccc12,inactive

row,SMILES,Potency
1,N#CCc1ccc(OCCCN2CCC(C(O)(c3ccccc3)c3ccccc3)CC2)cc1,"inconclusive [inhibitor, partial curve]"
2,CN(Cc1ccon1)Cc1cn(C)nc1-c1ccc2c(c1)OCCO2,inactive
3,O=C(/C=C/c1ccco1)N1CCc2ccccc21,"inconclusive [inhibitor, single point]"
4,CCCC[n+]1c(-c2ccc(Cl)cc2Cl)csc1Nc1ccccc1,"inconclusive [inhibitor, partial curve]"
5,Cc1ccccc1Nc1c(F)c(F)c(F)c(F)c1C(=O)O,inactive
6,CN(C)c1ccc(NC(=O)c2cn(-c3ccccc3)nc2-c2cccs2)cc1,"inconclusive [inhibitor, single point]"
7,CC1CCN(c2oc(-c3ccccc3Cl)nc2C#N)CC1,"inconclusive [inhibitor, partial curve]"
8,CN1CCN(C(=S)SCC(=O)Nc2ccc(Cl)cc2C(=O)c2ccccc2)CC1,"inconclusive [inhibitor, partial curve]"
9,COc1ccc(CC(=O)O/N=C(\N)c2ccncc2)cc1OC,inactive
10,CN(C)c1ccc(C(CC(=O)O)C(=O)O)cc1 (stereo unspecified),inactive
11,Cc1cc(C(=O)Nc2c(C)n(C)n(-c3ccccc3)c2=O)on1,inactive
12,Cc1cc(N(CCO)CCO)ccc1C(c1ccc(N(CCO)CCO)cc1C)c1ccccc1Cl,"inconclusive [inhibitor, single point]"
13,COc1cccc(C(=O)Nc2cccnc2)c1,inactive
14,CN(Cc1ccccc1N1CCCC1)C(=O)c1cc2ccccc2o1,"inconclusive [inhibitor, single point]"
15,Cc1cc2ccccc2n1CCNC(=O)COc1ccc2ccccc2c1,"inconclusive [inhibitor, single point]"
16,CCOc1ccc2nc3cc(N=Nc4ccc(N)nc4N)ccc3c(N)c2c1,"inconclusive [inhibitor, partial curve]"
17,CCCCCCCC(=O)N/N=C/c1ccc([N+](=O)[O-])o1,inactive
18,CN(c1ccc(C(=O)N2CCCCC2)cc1)S(C)(=O)=O,"inconclusive [inhibitor, partial curve, poor fit]"
19,Cc1cc(C)n2c(Nc3ccc4c(c3)OCCO4)c(-c3cc4ccccc4o3)nc2n1,"inconclusive [inhibitor, partial curve]"
20,CN(C)C(=O)CCc1ccc2c3c([nH]c2c1)[C@]1(CCC2CCCC2)[C@@H](C(=O)N2CCOCC2)C[C@H](CC(=O)NCCC2=CCCCC2)C(=O)N1CC3,"inconclusive [inhibitor, partial curve]"
21,COc1ccc(N2CCN(C(=O)CSc3nnc(NC(=O)C4CC4)s3)CC2)cc1,inactive
22,COc1ccc(C(=O)N2CCN(Cc3ccccc3C(F)(F)F)CC2)cc1,"inconclusive [inhibitor, single point]"
23,COc1cc(/C=C2\SC(=S)N(Nc3ccccc3)C2=O)cc(OC)c1OC,"inconclusive [inhibitor, single point]"
